Data: publication PMC9911399, “Two distinct binding modes provide the RNA-binding protein RbFox with extraordinary sequence specificity”
Numbering of substitutions follows the chain as printed; changes in the protein carry UniProt numbers. The list shows a part of the results.

T1: RBFOX1 RRM (Homo sapiens, UniProt Q9NWB1 109-208)
T1 sequence: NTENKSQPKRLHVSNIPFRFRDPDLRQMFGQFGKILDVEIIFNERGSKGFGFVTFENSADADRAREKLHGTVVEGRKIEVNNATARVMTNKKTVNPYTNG

B1: CACGACG (DNA:RNA)
RNA: GGGAGACCGGAAUUCAGAUUGUCCCACGACGUUAAAUCCCGUCGUAGCCACCA
DNA 1: CAATCTGAATTCCGGTCTCCC
DNA 2: TGGTGGCTACGACGGGATT
B2: UAUGUGU (DNA:RNA)
RNA: B1 RNA with C25U, C27U, A29U, C30G, G31U
DNA 1: CAATCTGAATTCCGGTCTCCC
DNA 2: TGGTGGCTACGACGGGATT
B3: UAGAACC (DNA:RNA)
RNA: B1 RNA with C25U, C27G, G28A, G31C
DNA 1: CAATCTGAATTCCGGTCTCCC
DNA 2: TGGTGGCTACGACGGGATT
B4: UGAAGAG (DNA:RNA)
RNA: B1 RNA with C25U, A26G, C27A, G28A, A29G, C30A
DNA 1: CAATCTGAATTCCGGTCTCCC
DNA 2: TGGTGGCTACGACGGGATT
B5: CUUAAGG (DNA:RNA)
RNA: B1 RNA with A26U, C27U, G28A, C30G
DNA 1: CAATCTGAATTCCGGTCTCCC
DNA 2: TGGTGGCTACGACGGGATT
B6: CUAUUCC (DNA:RNA)
RNA: B1 RNA with A26U, C27A, G28U, A29U, G31C
DNA 1: CAATCTGAATTCCGGTCTCCC
DNA 2: TGGTGGCTACGACGGGATT
B7: GGGGACA (DNA:RNA)
RNA: B1 RNA with C25G, A26G, C27G, G31A
DNA 1: CAATCTGAATTCCGGTCTCCC
DNA 2: TGGTGGCTACGACGGGATT
B8: GCCCGUA (DNA:RNA)
RNA: B1 RNA with C25G, A26C, G28C, A29G, C30U, G31A
DNA 1: CAATCTGAATTCCGGTCTCCC
DNA 2: TGGTGGCTACGACGGGATT
B9: ACCGCGU (DNA:RNA)
RNA: B1 RNA with C25A, A26C, A29C, C30G, G31U
DNA 1: CAATCTGAATTCCGGTCTCCC
DNA 2: TGGTGGCTACGACGGGATT
B10: CACAGUU (DNA:RNA)
RNA: B1 RNA with G28A, A29G, C30U, G31U
DNA 1: CAATCTGAATTCCGGTCTCCC
DNA 2: TGGTGGCTACGACGGGATT
B11: UAGGCGA (DNA:RNA)
RNA: B1 RNA with C25U, C27G, A29C, C30G, G31A
DNA 1: CAATCTGAATTCCGGTCTCCC
DNA 2: TGGTGGCTACGACGGGATT
B12: UGAAUAC (DNA:RNA)
RNA: GGGAGACCGGAAUUCAGAUUGUCCUGAAUACUUAAAUCCCGUCGUAGCCACCA
DNA 1: CAATCTGAATTCCGGTCTCCC
DNA 2: TGGTGGCTACGACGGGATT
B13: AACGUGG (DNA:RNA)
RNA: B1 RNA with C25A, A29U, C30G
DNA 1: CAATCTGAATTCCGGTCTCCC
DNA 2: TGGTGGCTACGACGGGATT
B14: ACCGAAU (DNA:RNA)
RNA: B1 RNA with C25A, A26C, C30A, G31U
DNA 1: CAATCTGAATTCCGGTCTCCC
DNA 2: TGGTGGCTACGACGGGATT
B15: UCGUGAC (DNA:RNA)
RNA: B12 RNA with G26C, A27G, A28U, U29G
DNA 1: CAATCTGAATTCCGGTCTCCC
DNA 2: TGGTGGCTACGACGGGATT
B16: AGCUGCG (DNA:RNA)
RNA: B1 RNA with C25A, A26G, G28U, A29G
DNA 1: CAATCTGAATTCCGGTCTCCC
DNA 2: TGGTGGCTACGACGGGATT
B17: UCUACAA (DNA:RNA)
RNA: B12 RNA with G26C, A27U, U29C, C31A
DNA 1: CAATCTGAATTCCGGTCTCCC
DNA 2: TGGTGGCTACGACGGGATT
B18: CCGAGUG (DNA:RNA)
RNA: B1 RNA with A26C, C27G, G28A, A29G, C30U
DNA 1: CAATCTGAATTCCGGTCTCCC
DNA 2: TGGTGGCTACGACGGGATT
B19: CUGUGCU (DNA:RNA)
RNA: B1 RNA with A26U, C27G, G28U, A29G, G31U
DNA 1: CAATCTGAATTCCGGTCTCCC
DNA 2: TGGTGGCTACGACGGGATT
B20: AGAUCAA (DNA:RNA)
RNA: B12 RNA with U25A, A28U, U29C, C31A
DNA 1: CAATCTGAATTCCGGTCTCCC
DNA 2: TGGTGGCTACGACGGGATT
B21: AGUGCCG (DNA:RNA)
RNA: B1 RNA with C25A, A26G, C27U, A29C
DNA 1: CAATCTGAATTCCGGTCTCCC
DNA 2: TGGTGGCTACGACGGGATT
B22: GCCACUA (DNA:RNA)
RNA: B1 RNA with C25G, A26C, G28A, A29C, C30U, G31A
DNA 1: CAATCTGAATTCCGGTCTCCC
DNA 2: TGGTGGCTACGACGGGATT
B23: GCCGAGC (DNA:RNA)
RNA: B1 RNA with C25G, A26C, C30G, G31C
DNA 1: CAATCTGAATTCCGGTCTCCC
DNA 2: TGGTGGCTACGACGGGATT
B24: ACGUCUU (DNA:RNA)
RNA: GGGAGACCGGAAUUCAGAUUGUCCACGUCUUUUAAAUCCCGUCGUAGCCACCA
DNA 1: CAATCTGAATTCCGGTCTCCC
DNA 2: TGGTGGCTACGACGGGATT
B25: GUCCUGG (DNA:RNA)
RNA: B1 RNA with C25G, A26U, G28C, A29U, C30G
DNA 1: CAATCTGAATTCCGGTCTCCC
DNA 2: TGGTGGCTACGACGGGATT
B26: GGAAGUG (DNA:RNA)
RNA: B12 RNA with U25G, U29G, A30U, C31G
DNA 1: CAATCTGAATTCCGGTCTCCC
DNA 2: TGGTGGCTACGACGGGATT
B27: UAGAUUU (DNA:RNA)
RNA: B24 RNA with A25U, C26A, U28A, C29U
DNA 1: CAATCTGAATTCCGGTCTCCC
DNA 2: TGGTGGCTACGACGGGATT
B28: UUGGAUC (DNA:RNA)
RNA: B24 RNA with A25U, C26U, U28G, C29A, U31C
DNA 1: CAATCTGAATTCCGGTCTCCC
DNA 2: TGGTGGCTACGACGGGATT
B29: CUUGGGG (DNA:RNA)
RNA: B1 RNA with A26U, C27U, A29G, C30G
DNA 1: CAATCTGAATTCCGGTCTCCC
DNA 2: TGGTGGCTACGACGGGATT
B30: CCCCAAG (DNA:RNA)
RNA: B1 RNA with A26C, G28C, C30A
DNA 1: CAATCTGAATTCCGGTCTCCC
DNA 2: TGGTGGCTACGACGGGATT
B31: UAUCCAG (DNA:RNA)
RNA: B1 RNA with C25U, C27U, G28C, A29C, C30A
DNA 1: CAATCTGAATTCCGGTCTCCC
DNA 2: TGGTGGCTACGACGGGATT

target: T1, RBFOX1 RRM; test: EMSA; HiTS-Eq, 1 nM pool, 10 min; buffer printed only for the single-RNA assays: 10 mM Tris pH 7.5, 150 mM NaCl, 3.4 mM EDTA, 0.001% NP-40, 30 C; conditions: tags: His6 N-terminal (pET28a); label: 5' 32P
Outline: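 Purified RbFox RRM (wild type or mutant) was equilibrated for 10 min in 50 µL with 1 nM of a 5′-radiolabelled pool of RNA with 7 randomized nucleotides, its flanks annealed to DNA oligonucleotides, across increasing protein concentrations. Free RNA was separated by 8% native PAGE, excised, reverse-transcribed, PCR-barcoded and sequenced on an Illumina HiSeq 2500. Relative association constants came from read-count changes of each variant against the control reaction, normalised to the cognate motif.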

Binder	binding signal
B1	0.00336 KA relative to UGCAUGU
B2	0.0236 KA relative to UGCAUGU
B3	0.00723 KA relative to UGCAUGU
B4	0.018 KA relative to UGCAUGU
B5	0.00715 KA relative to UGCAUGU
B6	0.00135 KA relative to UGCAUGU
B7	0.0245 KA relative to UGCAUGU
B8	0.00913 KA relative to UGCAUGU
B9	0.00429 KA relative to UGCAUGU
B10	0.00341 KA relative to UGCAUGU
B11	0.0114 KA relative to UGCAUGU
B12	0.0117 KA relative to UGCAUGU
B13	0.00913 KA relative to UGCAUGU
B14	0.00648 KA relative to UGCAUGU
B15	0.00208 KA relative to UGCAUGU
B16	0.0222 KA relative to UGCAUGU

Binder	binding signal
B17	0.00199 KA relative to UGCAUGU
B18	0.0124 KA relative to UGCAUGU
B19	0.0184 KA relative to UGCAUGU
B20	0.00294 KA relative to UGCAUGU
B21	0.0117 KA relative to UGCAUGU
B22	0.00609 KA relative to UGCAUGU
B23	0.0163 KA relative to UGCAUGU
B24	0.00728 KA relative to UGCAUGU
B25	0.0183 KA relative to UGCAUGU
B26	0.0211 KA relative to UGCAUGU
B27	0.0106 KA relative to UGCAUGU
B28	0.0188 KA relative to UGCAUGU
B29	0.00418 KA relative to UGCAUGU
B30	0.0108 KA relative to UGCAUGU
B31	0.0039 KA relative to UGCAUGU
